# According to publication PMC5700166:
# Only a part is listed here, and it is no random draw. The list includes weakly bound sequences.
# Experiments:
# Assay in all cases: protein-binding microarray (PBM)
# Conditions in all cases: PBM: ~300 nM protein, 6 mM HEPES pH 7.8, 80 mM KCl, 0.5 mM EDTA, 0.5 mM EGTA, 6% glycerol, 35 ng/ul poly-dIdC, 1% milk, 1 h, room temperature; Ap Aiptasia and Nv Nematostella (sea anemones) / Co Capsaspora / Aq Amphimedon (sponge) / Dm Drosophila / Hu human; RHD is the Rel homology domain; high values mean tight binding; most listed sequences are background and not binding sites; double strand, one strand shown
# [1] = target: T1, GST-Ap-NF-kB RHD (UniProt A0A913YAJ5)
# T1 sequence: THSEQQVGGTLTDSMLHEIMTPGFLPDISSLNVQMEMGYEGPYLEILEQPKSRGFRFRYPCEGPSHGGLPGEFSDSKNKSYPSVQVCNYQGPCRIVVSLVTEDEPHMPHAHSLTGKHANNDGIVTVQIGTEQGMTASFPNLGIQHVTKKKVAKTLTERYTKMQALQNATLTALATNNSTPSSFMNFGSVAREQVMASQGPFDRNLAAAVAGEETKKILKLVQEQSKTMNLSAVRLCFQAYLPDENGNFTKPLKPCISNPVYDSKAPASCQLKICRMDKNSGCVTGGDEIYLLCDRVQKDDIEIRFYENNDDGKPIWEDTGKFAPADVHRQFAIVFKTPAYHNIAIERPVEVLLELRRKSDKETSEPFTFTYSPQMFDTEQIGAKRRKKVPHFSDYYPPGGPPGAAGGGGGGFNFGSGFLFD
# [2] = target: T2, GST-Nv-NF-kB (Cys allele) (UniProt E5G601)
# T2 sequence: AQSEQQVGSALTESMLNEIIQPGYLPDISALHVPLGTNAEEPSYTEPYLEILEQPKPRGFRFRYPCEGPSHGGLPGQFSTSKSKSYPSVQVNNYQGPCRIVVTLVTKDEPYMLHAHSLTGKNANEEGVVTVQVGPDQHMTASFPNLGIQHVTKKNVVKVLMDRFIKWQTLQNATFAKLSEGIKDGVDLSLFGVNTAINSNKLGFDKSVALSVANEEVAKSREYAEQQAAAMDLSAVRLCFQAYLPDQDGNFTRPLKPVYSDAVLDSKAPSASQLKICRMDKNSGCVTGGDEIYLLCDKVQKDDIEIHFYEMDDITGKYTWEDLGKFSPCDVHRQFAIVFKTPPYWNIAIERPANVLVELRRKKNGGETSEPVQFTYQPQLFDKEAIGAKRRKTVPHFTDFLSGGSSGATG
# [3] = target: T3, GST-Co-NF-kB (UniProt F1ARL5)
# T3 sequence: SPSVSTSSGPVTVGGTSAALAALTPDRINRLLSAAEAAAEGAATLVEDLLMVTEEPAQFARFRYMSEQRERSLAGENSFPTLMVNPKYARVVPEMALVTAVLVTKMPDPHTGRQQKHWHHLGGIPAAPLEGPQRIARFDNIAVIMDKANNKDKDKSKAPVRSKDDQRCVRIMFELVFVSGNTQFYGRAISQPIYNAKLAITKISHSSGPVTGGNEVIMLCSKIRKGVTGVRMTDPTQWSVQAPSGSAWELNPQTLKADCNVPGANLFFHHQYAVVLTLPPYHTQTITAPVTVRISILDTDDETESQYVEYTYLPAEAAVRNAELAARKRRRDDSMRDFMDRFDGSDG
# [4] = target: T4, GST-Dm-Relish (UniProt Q94527)
# T4 sequence: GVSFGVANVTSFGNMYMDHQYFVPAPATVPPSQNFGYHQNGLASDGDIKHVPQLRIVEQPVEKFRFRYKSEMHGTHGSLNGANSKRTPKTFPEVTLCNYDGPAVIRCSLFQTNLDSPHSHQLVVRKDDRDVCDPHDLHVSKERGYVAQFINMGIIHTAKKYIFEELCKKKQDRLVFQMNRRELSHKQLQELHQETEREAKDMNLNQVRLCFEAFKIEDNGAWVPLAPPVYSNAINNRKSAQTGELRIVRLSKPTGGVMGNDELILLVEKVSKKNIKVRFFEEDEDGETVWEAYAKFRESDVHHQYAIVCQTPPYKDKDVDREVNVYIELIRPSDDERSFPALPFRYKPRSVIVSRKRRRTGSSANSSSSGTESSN
Sequence,binding signal [1],binding signal [2],binding signal [3],binding signal [4]
CCGATTAACATCAATGTTCCCCCTGATGTTAATCGGGTCTTGATTCGCTTGACGCTGCTG,6.95 z-score,6.49 z-score,11 z-score,–
CCGATTAACATCAGAGGAATTCCTGATGTTAATCGGGTCTTGATTCGCTTGACGCTGCTG,0.883 z-score,0.907 z-score,0.18 z-score,–
CCGATTAACATCAAAAATTCCGTTGATGTTAATCGGGTCTTGATTCGCTTGACGCTGCTG,-0.517 z-score,0.189 z-score,0.187 z-score,–
CCGATTAACATCACACATTCCCCTGATGTTAATCGGGTCTTGATTCGCTTGACGCTGCTG,6.52 z-score,7.88 z-score,5.83 z-score,–
CCGATTAACATCAAGGAAAGTCCTGATGTTAATCGGGTCTTGATTCGCTTGACGCTGCTG,0.292 z-score,0.954 z-score,0.18 z-score,–
CCGATTAACATCAAGGATTTTCCTGATGTTAATCGGGTCTTGATTCGCTTGACGCTGCTG,-0.043 z-score,-0.00154 z-score,0.0974 z-score,–
CCGATTAACATCACGGCAATTCCTGATGTTAATCGGGTCTTGATTCGCTTGACGCTGCTG,-0.134 z-score,-0.659 z-score,0.166 z-score,–
CCGATTAACATCAGGTTCTTACCTGATGTTAATCGGGTCTTGATTCGCTTGACGCTGCTG,-0.776 z-score,0.949 z-score,-1.6 z-score,–
CCGATTAACATCAGGGAGATTTGTGATGTTAATCGGGTCTTGATTCGCTTGACGCTGCTG,3.21 z-score,4.56 z-score,2.54 z-score,–
CCGATTAACATCAGAGAATCCCCTGATGTTAATCGGGTCTTGATTCGCTTGACGCTGCTG,9.54 z-score,9.8 z-score,3.37 z-score,–
CCGATTAACATCAAAATTTTCCGTGATGTTAATCGGGTCTTGATTCGCTTGACGCTGCTG,0.376 z-score,0.267 z-score,0.952 z-score,–
CCGATTAACATCAAAATTCCCCGTGATGTTAATCGGGTCTTGATTCGCTTGACGCTGCTG,9.41 z-score,11.3 z-score,10.6 z-score,–
CCGATTAACATCACGTAATTTCCTGATGTTAATCGGGTCTTGATTCGCTTGACGCTGCTG,0.0893 z-score,-0.359 z-score,0.389 z-score,–
CCGATTAACATCAGGGCTTTCCATGATGTTAATCGGGTCTTGATTCGCTTGACGCTGCTG,0.986 z-score,0.147 z-score,0.136 z-score,–
CCGATTAACATCACGGAAATTTATGATGTTAATCGGGTCTTGATTCGCTTGACGCTGCTG,0.416 z-score,0.34 z-score,1.07 z-score,–
CCGATTAACATCAGAGAACCCCCTGATGTTAATCGGGTCTTGATTCGCTTGACGCTGCTG,7.89 z-score,6.19 z-score,2.09 z-score,–
CCGATTAACATCAGGAATAACCATGATGTTAATCGGGTCTTGATTCGCTTGACGCTGCTG,0.237 z-score,0.554 z-score,0.297 z-score,–
CCGATTAACATCAGGACTTTACATGATGTTAATCGGGTCTTGATTCGCTTGACGCTGCTG,0.245 z-score,0.0854 z-score,-0.0589 z-score,–

Sequence,binding signal [1],binding signal [2],binding signal [3],binding signal [4]
CCGATTAACATCAATTCCCAAAATGATGTTAATCGGGTCTTGATTCGCTTGACGCTGCTG,0.62 z-score,2.17 z-score,1.45 z-score,–
CCGATTAACATCAAAAAATACCATGATGTTAATCGGGTCTTGATTCGCTTGACGCTGCTG,1.11 z-score,1.58 z-score,0.813 z-score,–
CCGATTAACATCATGAATTCCCATGATGTTAATCGGGTCTTGATTCGCTTGACGCTGCTG,1.57 z-score,3.03 z-score,2.17 z-score,–
CCGATTAACATCACAAAATTTCCTGATGTTAATCGGGTCTTGATTCGCTTGACGCTGCTG,0.265 z-score,-0.058 z-score,0.606 z-score,–
CCGATTAACATCAGGAAATCCACTGATGTTAATCGGGTCTTGATTCGCTTGACGCTGCTG,-0.015 z-score,0.000445 z-score,0.0456 z-score,–
CCGATTAACATCAGGAAATACCATGATGTTAATCGGGTCTTGATTCGCTTGACGCTGCTG,0.524 z-score,0.818 z-score,0.687 z-score,–
CCGATTAACATCAAATTCCCCCGTGATGTTAATCGGGTCTTGATTCGCTTGACGCTGCTG,9.52 z-score,8.91 z-score,11 z-score,–
CCGATTAACATCAGGGCTTTACCTGATGTTAATCGGGTCTTGATTCGCTTGACGCTGCTG,1.07 z-score,2.29 z-score,-0.132 z-score,–
CCGATTAACATCAAAGGAATTTCTGATGTTAATCGGGTCTTGATTCGCTTGACGCTGCTG,0.0876 z-score,0.555 z-score,-0.154 z-score,–
CCGATTAACATCAATATTCCCCCTGATGTTAATCGGGTCTTGATTCGCTTGACGCTGCTG,8.39 z-score,9.05 z-score,10.4 z-score,–
CCGATTAACATCAGGGGAAAGTATGATGTTAATCGGGTCTTGATTCGCTTGACGCTGCTG,6.56 z-score,7.79 z-score,7.64 z-score,–
CCGATTAACATCAGAGCCCCCCCTGATGTTAATCGGGTCTTGATTCGCTTGACGCTGCTG,4.71 z-score,3.96 z-score,3.1 z-score,4.58 z-score
CCGATTAACATCAGGAACTTCCATGATGTTAATCGGGTCTTGATTCGCTTGACGCTGCTG,0.359 z-score,-0.409 z-score,-0.507 z-score,0.213 z-score
CCGATTAACATCAGAAATGCCCATGATGTTAATCGGGTCTTGATTCGCTTGACGCTGCTG,0.848 z-score,0.948 z-score,0.871 z-score,0.803 z-score
CCGATTAACATCAAAAATTTCCTTGATGTTAATCGGGTCTTGATTCGCTTGACGCTGCTG,0.298 z-score,0.606 z-score,0.741 z-score,1.94 z-score
CCGATTAACATCACGGAAGTTCCTGATGTTAATCGGGTCTTGATTCGCTTGACGCTGCTG,0.234 z-score,0.0581 z-score,0.00567 z-score,0.619 z-score
CCGATTAACATCAACGGAATTTCTGATGTTAATCGGGTCTTGATTCGCTTGACGCTGCTG,-0.213 z-score,0.447 z-score,0.48 z-score,0.528 z-score
